Test results: PubChem BioAssay AID1460 (National Center for Advancing Translational Sciences (NCATS), 2008)
“And” between values parts separate entries of the source, which are not always exact repeats. Identical values can stand only once. Out of some 270,000 compounds screened, about 5,800 (2.1%) were called active. Inconclusive means that the source gave no clear call. Such entries were picked first, then a sample of the others. Calls follow the shape of the dose curve; as a rule, active = well fitted inhibition curve with a large enough effect; inconclusive = small, poorly fitted or top-dose-only effect; inactive = flat fitted curve, though single readings scatter. Where the call is inconclusive, the potency comes from a doubtful curve fit.

The molecules below were run against Microtubule-associated protein tau (Homo sapiens) (UniProt P10636) (assay: qHTS for Inhibitors of Tau Fibril Formation, Thioflavin T Binding). Settings: recombinant tau K18 P301L (four-repeat tau fragment), heparin-induced fibrillization, ThT fluorescence; series mostly up to 57.4 µM.
Chain of UniProt P10636 (P10636 whole entry, looked up, the tested form may be a part): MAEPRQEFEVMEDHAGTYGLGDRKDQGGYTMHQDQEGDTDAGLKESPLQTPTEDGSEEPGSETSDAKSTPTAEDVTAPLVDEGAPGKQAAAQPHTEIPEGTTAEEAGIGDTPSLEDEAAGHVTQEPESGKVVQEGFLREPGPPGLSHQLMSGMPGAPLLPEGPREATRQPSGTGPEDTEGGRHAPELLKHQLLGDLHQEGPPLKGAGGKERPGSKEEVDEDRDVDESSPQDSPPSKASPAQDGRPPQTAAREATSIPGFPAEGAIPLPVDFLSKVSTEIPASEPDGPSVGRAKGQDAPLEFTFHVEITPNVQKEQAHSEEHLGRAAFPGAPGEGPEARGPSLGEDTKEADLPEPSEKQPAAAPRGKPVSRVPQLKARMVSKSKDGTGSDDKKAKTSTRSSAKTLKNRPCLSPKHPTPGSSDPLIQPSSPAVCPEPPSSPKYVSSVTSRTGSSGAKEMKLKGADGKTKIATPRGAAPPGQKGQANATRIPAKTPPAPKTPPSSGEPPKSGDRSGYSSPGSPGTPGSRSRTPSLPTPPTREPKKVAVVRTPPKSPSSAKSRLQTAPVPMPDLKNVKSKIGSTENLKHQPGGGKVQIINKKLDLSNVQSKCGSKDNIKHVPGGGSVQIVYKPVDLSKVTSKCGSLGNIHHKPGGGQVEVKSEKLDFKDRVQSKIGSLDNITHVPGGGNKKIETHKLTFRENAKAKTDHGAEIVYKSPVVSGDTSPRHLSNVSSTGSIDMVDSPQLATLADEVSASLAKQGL
In short: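 Heparin-induced (20 uM) aggregation of recombinant human K18 P301L tau, 15 uM unlabeled with 0.24 uM labeled, pH 7 acetate buffer, 6 hr at 37 C with compound. Fibrils quantified by 30 uM ThT fluorescence after 1 hr ambient incubation.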
Also: nearly all actives have a fitted effect of over 55% in size.
Potency is read from the fitted curve at half-maximal effect; tags tell the direction and shape of the fitted curve.

Structure (SMILES)	Potency
CCn1nc(-c2cccs2)nc2c(=O)n(C)c(=O)nc1-2	active: 17.8 µM
CCN(CC)S(=O)(=O)c1cccc(N=Nc2c(O)n(CC)c(=S)n(CC)c2=O)c1	active: 15.8 µM
CCCCn1c(O)c(C=NCc2ccc3c(c2)OCO3)c(=O)[nH]c1=O	inconclusive: 44.7 µM [inhibitor, single point]
CCCCn1c(NS(=O)(=O)c2ccccc2)c(C(=O)OCC)c2nc3ccccc3nc21	inactive
COc1cc2c(cc1OC)CN(c1ccc([N+](=O)[O-])c(C(F)(F)F)c1)CC2	inconclusive: 1.41 µM [inhibitor, full curve]
O=c1c2ccccc2nc(/C=C/c2ccc(O)cc2)n1-c1cccc(O)c1	inactive
COc1ccc(/C=C/c2nc3ccccc3c(=O)n2-c2ccc(C)cc2)cc1O	inconclusive: 17.8 µM [inhibitor, partial curve]
O=C(CSc1ccccn1)Nc1cccc2ccccc12	inconclusive: 31.6 µM [inhibitor, single point]
O=C(O)CCn1cc(C=C2C(=O)NC(=S)NC2=O)c(-c2cccc(Br)c2)n1	inconclusive: 22.4 µM [inhibitor, partial curve]
CCN(CC)c1ccc(N=Cc2c(O)n(-c3ccccc3C)c(=O)[nH]c2=O)cc1	active: 20 µM
COC1C(OC(=O)c2ccc(C)[nH]2)C(O)C(Oc2ccc3c(O)c(NC(=O)c4ccc(O)c(CC=C(C)C)c4)c(=O)oc3c2Cl)OC1(C)C (configuration not stated)	inconclusive: 31.6 µM [inhibitor, partial curve]
O=C(N/N=C/c1c(O)n(Cc2ccc(F)cc2)c(=O)[nH]c1=O)c1ccccc1	inconclusive: 39.8 µM [inhibitor, single point]
CCN(CC)C(=O)c1ccc2c(c1)C1C(Cl)C(Sc3ccccc3[N+](=O)[O-])CC1C(C(=O)O)N2 (configuration not stated)	inconclusive: 11.2 µM [inhibitor, partial curve]
COc1cccc(C(=O)N2CCC3(CC2)OCCO3)c1	inactive
Nc1c(C(=O)NCc2ccco2)c2nc3ccccc3nc2n1Cc1ccccc1	inconclusive: 22.4 µM [inhibitor, single point]
CCOC(=O)c1c(/N=C/c2c(O)n(-c3cccc(C)c3)c(=O)[nH]c2=O)sc2c1CCCC2	inactive
O=C(CN1CC=C(c2ccccc2)CC1)NC(=O)NCc1ccco1	inconclusive: 25.1 µM [inhibitor, single point]
C=CC1CN2CCC1CC2C(O)c1ccnc2ccccc12 (configuration not stated)	inconclusive: 35.5 µM [inhibitor, single point]
CCn1cnc2c(Nc3cccc(Cl)c3)nc(N[C@@H]3CCCC[C@@H]3N)nc21	inconclusive: 35.5 µM [inhibitor, partial curve, poor fit]
CCN1CCN(c2ccc(N)cc2)CC1	active: 25.1 µM
CCOC(=O)C(O)(c1ccc(NC(=S)NC(=O)c2ccc(Cl)cc2Cl)c(C)c1)C(F)(F)F (configuration not stated)	inconclusive: 17.8 µM [inhibitor, single point]

Structure (SMILES)	Potency
CN1CCN(c2ccc(Cl)cc2N)CC1	inactive
Cc1cc(C)c(-n2c(O)c(/C=N/NC(=O)c3ccncc3)c(=O)[nH]c2=O)c(C)c1	inconclusive: 1.58 µM [inhibitor, full curve, poor fit]
N#CC(C#N)=Cc1ccc([N+](=O)[O-])c(O)c1	active: 12.6 µM and active: 14.1 µM and active: 25.1 µM
NNC(=O)c1nn(-c2ccccc2)cc1O	inconclusive: 14.1 µM [inhibitor, partial curve]
COc1ccc(N2CCN(Cc3nc4c(c(=O)[nH]c(=O)n4C)n3Cc3ccc(Cl)cc3)CC2)cc1	inconclusive: 10 µM [inhibitor, partial curve]
O=S1(=O)N(CCN2CC=C(c3c[nH]c4cc(F)ccc34)CC2)c2cccc3c2N1CCC3	inconclusive: 15.8 µM [inhibitor, partial curve]
O=C1CN(C(=O)CN2CCCCC2)C(c2ccccc2)c2cc(Br)ccc2N1 (configuration not stated)	inactive
COc1ccc(Nc2ncc(C(=O)N3CCC4(CC3)OCCO4)c3ccccc23)cc1	inactive
O=C(CCCN1CCC2(CC1)C(=O)N(Cc1cccc(F)c1)CN2c1ccccc1)c1ccc(F)cc1	inconclusive: 14.1 µM [inhibitor, partial curve] and inconclusive: 39.8 µM [inhibitor, single point]
CCC(C)n1c(O)c(/C=N/Nc2ccccc2)c(=O)[nH]c1=S (configuration not stated)	active: 17.8 µM
c1ccc2c(c1)[nH]c1cnccc12	inactive
COc1ncccc1C(=O)NCC(CC(=O)O)c1ccccc1 (configuration not stated)	inconclusive: 0.355 µM [inhibitor, partial curve, poor fit]
O=C1NC(=O)N(c2ccc(F)cc2)C(=O)/C1=C/c1ccc2c(c1)CCCN2Cc1ccccc1	inconclusive: 12.6 µM [inhibitor, partial curve]
CC(=O)c1ccc(NC(=O)CSc2nc(=O)cc(N)n2-c2ccccc2)cc1	inconclusive: 12.6 µM [inhibitor, partial curve]
CCN1CCc2ccccc2C1	inactive
CCCC/C=C/[C@@H](NP(=O)(c1ccccc1)c1ccccc1)c1ccccc1OC	inconclusive: 11.2 µM [inhibitor, partial curve, poor fit]
CCCOC(=O)c1ccc(OC(=O)c2ccco2)cc1	inconclusive: 7.08 µM [inhibitor, full curve]
CN1CC[C@]2(c3cccc(O)c3)Cc3nc4ccccc4cc3C[C@H]2C1	inconclusive: 25.1 µM [inhibitor, single point]
CCCSc1nc2ccccc2c(=O)n1-c1ccccc1OC	inconclusive: 25.1 µM [inhibitor, single point]
Cc1cccc(N2C(=O)NC(=O)/C(=C\c3cc(C)n(-c4sc5c(c4C#N)CCCC5)c3C)C2=O)c1C	inconclusive: 14.1 µM [inhibitor, partial curve]
C[C@@]12CCC3C(CCC4=CC(=O)CC[C@]43C)C1CCC2O (some centres not stated)	inconclusive: 25.1 µM [inhibitor, partial curve]
